The whole screen tested about 310,000 compounds, of which about 18,000 (5.8%) were called active. Inconclusive results, whose numbers are uncertain, are shown with a selection of clear calls. The call rests on the fitted dose curve; in most records, active means well fitted inhibition curve with a large enough effect; inconclusive means small, poorly fitted or top-dose-only effect, or another doubt; inactive means no such curve, though single readings can be large or run the other way. Potencies of inconclusive entries are left out as doubtful fits.
assay: Primary qHTS for delayed death inhibitors of the malarial parasite plastid, 48 hour incubation; conditions: P. falciparum luciferase growth in erythrocytes; series mostly up to 28.7 µM; activity change, negative = inhibition: at the top concentration
How it was run: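 A one-generation exposure of luciferase-tagged malaria parasites in RPMI 1640/Albumax erythrocyte culture, 37 C and 5% CO2. Inhibition is inferred from decreased luminescence after adding detection reagent.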
On the % scale 0 is the no-effect control and ±100 the full control effect; potency means the concentration at half of the fitted maximal effect; tags describe the fitted curve by direction and shape.

Row | SMILES | activity change, negative = inhibition | Potency
1 | CCCCOc1ccccc1NC(=O)CC1SC(=NCC)N(CC)C1=O (stereo not drawn) | inactive: -16.1% | –
2 | c1ccc(-c2cnnc(N3CCCCC3)n2)cc1 | – | inconclusive [inhibitor, full curve, poor fit]
3 | Cc1ccc2[nH]c(=O)c(CN(CC3CCCO3)S(=O)(=O)c3c(C)ccc4nsnc34)cc2c1 (stereo not drawn) | – | inconclusive [inhibitor, single point]
4 | O=C(CCC1N=C2c3ccccc3N=C(SCc3ccc(Cl)cc3)N2C1=O)NCc1ccco1 (stereo not drawn) | – | inconclusive [inhibitor, single point]
5 | O=C(COC(=O)c1ccccc1C(=O)c1ccc(Cl)cc1)NC(c1ccccc1)c1ccccc1 | – | inconclusive [inhibitor, single point]
6 | O=C(COC(=O)/C=C/c1ccc(Cl)cc1Cl)Nc1cc(C(F)(F)F)ccc1N1CCOCC1 | inactive: 6.82% | –
7 | Cc1noc(C)c1S(=O)(=O)N1CCN(c2ccccc2Cl)CC1 | – | inconclusive [inhibitor, partial curve]
8 | CC(O)[C@H]1CNCCN1CC1(c2ccccc2)CC1 (stereo partly drawn) | – | inconclusive [inhibitor, single point]
9 | C[C@H](NC(=O)c1ccccc1)C(=O)Nc1nc(-c2ccccn2)cs1 | – | inconclusive [inhibitor, partial curve, poor fit]
10 | Nc1ccccc1Oc1ncc(C(F)(F)F)cc1Cl | – | active: 5.22 µM
11 | COc1ccc(Cn2c(-c3ccc(OC)cc3)nc3c(c(=O)c4ccccc4n3C)c2=O)cc1 | – | active: 11.7 µM
12 | COc1cccc(/C(O)=C2/C(=O)C(=O)N(CCN3CCOCC3)C2c2cccnc2)c1 (stereo not drawn) | – | inconclusive [inhibitor, full curve, poor fit]
13 | Clc1ccc2c(c1)CNc1c(ncnc1N1CCOCC1)O2 | – | inconclusive [inhibitor, partial curve, poor fit]
14 | CC(C)(C)OC(=O)NCc1ccc(CNC(=O)c2nc[nH]c2C(=O)NCc2ccccc2)cc1 | – | active: 10.4 µM
15 | CCC1=[N+](C)c2cccc3cccc(c23)N1C | – | inconclusive [inhibitor, partial curve]
16 | CCn1c(O)c(/C=C2\C=Nc3ccccc32)sc1=Nc1ccc(C)cc1 | – | inconclusive [inhibitor, partial curve, poor fit]
17 | CC(=O)C1=C(O)C(=O)N(Cc2cccnc2)C1c1ccccc1Cl (stereo not drawn) | inactive: 4.38% | –
18 | O=C1CC(N(CCc2ccccc2)C(=S)Nc2ccccc2)C(=O)N1c1ccc(Br)cc1 (stereo not drawn) | – | inconclusive [inhibitor, single point]

Reference: PubChem BioAssay AID504832 (National Center for Advancing Translational Sciences (NCATS), 2011)
